# From PubChem BioAssay AID686971 (National Center for Advancing Translational Sciences (NCATS), 2013)
# Screen size: about 360,000 compounds; about 7,500 (2.1%) were called active. This list was built around the results that the source calls inconclusive (neither active nor inactive); the mix of calls is not that of the screen. Calls follow the shape of the dose curve; as a rule, active = well fitted cell-killing curve with a large enough effect; inconclusive = small, poorly fitted or top-dose-only effect, or effect the other way, or another doubt; inactive = no such curve, though single readings can be large or run the other way. Potencies of inconclusive entries are left out as doubtful fits. More than one record can exist for a structure, and the calls need not agree.
# Assay: qHTS for induction of synthetic lethality in tumor cells producing 2HG: qHTS for the HT-1080-IDH1KD cell line;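 as to activity, negative = toxicity: 0% = DMSO wells and -100% = cell-free medium wells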
# Settings: HT-1080 IDH1 knockdown viability, ATP luminescence, 48 h; activity, negative = toxicity: at 46.1 µM (top of the series) unless noted
# How it was run: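 CellTiter-Glo luminescence after 48 h compound exposure at 37 degrees C of IDH1-knockdown HT-1080 cells in 5% FBS RPMI. %Activity scaled between DMSO wells and cell-free media wells, with curves fitted and assigned curve classes.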
# Potency is read from the fitted curve at half-maximal effect; tags tell the direction and shape of the fitted curve.
Compound,Potency,"activity, negative = toxicity"
O=C(c1ccc(N2CCCCC2)c([N+](=O)[O-])c1)N1CCN(S(=O)(=O)c2ccccc2)CC1,inactive,–
Nc1nc(=S)c2ncn(C3OC(CO)C(O)C3O)c2[nH]1 (stereo unspecified),active: 20.6 µM,–
OCC1(Cc2cccc(F)c2)CCN(Cc2ccc3cccc(F)c3n2)CC1,"inconclusive [cytotoxic, single point]",–
CCOc1ccccc1C1c2[nH]c3ccccc3c2C[C@H]2C(=O)N(C3CCN(Cc4ccccc4)CC3)CC(=O)N12 (stereo partly specified),"inconclusive [cytotoxic, partial curve]",–
CCn1cc(CN2CCC(C(=O)Nc3ccc(Oc4ccccc4F)cc3)CC2)c(C)n1,"inconclusive [cytotoxic, partial curve]",–
CCCCCCN1N=C(C)C(C(=O)c2ccc(Cl)cc2)C1=O (stereo unspecified),"inconclusive [cytotoxic, single point]",–
COc1ccc([C@]2(C(C)C)ON(c3ccccc3C(F)(F)F)C2=O)cc1,"inconclusive [cytotoxic, single point]",–
COc1ccc(N=CC2=C(O)CC(c3ccccc3)CC2=O)c(OC)c1 (stereo unspecified),"inconclusive [cytotoxic, partial curve, poor fit]",–
CC(C)C[C@H](NC(=O)c1[nH]cnc1C(=O)N[C@@H](C)c1ccccc1)C(=O)OC(C)(C)C,"inconclusive [cytotoxic, single point]",–
COc1cc(OC)cc(C(=O)Nc2cc(-c3cn4cccnc4n3)ccc2C)c1,"inconclusive [cytotoxic, single point]",–
COc1cccc(/C=C/C(=O)Nc2ccc(N3CCOCC3)cc2)c1OC,inactive,–
NC(=O)c1ccccc1NC(=S)NC(=O)CCc1ccccc1,active: 3.26 µM,–
NNc1nnc2c3cc(F)ccc3n(CCc3ccccc3)c2n1,"inconclusive [cytotoxic, single point]",–
CCCn1c(N)c(C(=O)CSc2nnc(Cc3ccccc3)o2)c(=O)n(C)c1=O,"inconclusive [cytotoxic, partial curve]",–
COCCN(Cc1cc2cc3c(cc2nc1Cl)OCO3)C(=O)c1ccc(C)cc1,inactive,–
O=C(NNC(=O)C1CC1c1ccccc1)Nc1cccc(Cl)c1 (stereo unspecified),"inconclusive [cytotoxic, single point]",–
O=C(COc1ccccc1)Nc1sc2c(c1C(=O)NCc1cccnc1)CCCC2,"inconclusive [cytotoxic, single point]",–
CCN(CC)C(=S)SSC(=S)N(CC)CC,active: 0.0052 µM,–
N=C1CCCN1CC(=O)c1ccc(Br)cc1,inactive,–
CCc1ccccc1NC(=O)C1CCCN(c2ncnc3onc(-c4ccc(F)cc4)c23)C1 (stereo unspecified),–,inconclusive: 6.01%
COc1cccc(Cn2c3ccc(NC(=O)Cc4cc(OC)ccc4OC)cc3c(=O)n2C)c1,"inconclusive [cytotoxic, partial curve]",–

Compound,Potency,"activity, negative = toxicity"
N#Cc1cccc(NC(=O)N2CCC(c3nc4c(nnn4Cc4cccc(Cl)c4)c(=O)[nH]3)CC2)c1,"inconclusive [cytotoxic, single point]",–
CC1c2cc3c(cc2CCN1C(=O)c1cccc(Cl)c1)OCCCO3 (stereo unspecified),"inconclusive [cytotoxic, single point]",–
O=C(CCCN1C(=O)/C(=C/c2cccs2)SC1=S)Nc1cccc(O)c1,active: 16.4 µM,–
CCOC(=O)C1=CCN(S(=O)(=O)c2ccccc2C)C1c1ccc(Br)cc1 (stereo unspecified),"inconclusive [cytotoxic, single point]",–
CCOC(=O)C1=C(C)N(c2ccccc2)C(=O)C1,"inconclusive [cytotoxic, partial curve]",–
C/C(=N\NC(=S)Nc1c(C)cccc1C)c1ccc(OC(F)F)cc1,"inconclusive [cytotoxic, single point]",–
O=S(=O)(Nc1ccc(Cc2ccncc2)cc1)c1ccc(Br)cc1,"inconclusive [cytotoxic, partial curve]",–
COc1ccc(-c2oc3c(c2C#CC2(O)CCCCC2)C(OC(C)=O)CCC3)cc1 (stereo unspecified),"inconclusive [cytotoxic, single point]",–
COc1ccc(NCC(O)Cn2c(C)c(C)c3ccccc32)cc1 (stereo unspecified),"inconclusive [cytotoxic, single point]",–
NC(=O)c1c(NC(=O)COC(=O)c2ccc(S(=O)(=O)Nc3ccccc3)cc2)sc2c1CCCC2,"inconclusive [cytotoxic, single point]",–
COc1ccc(NC(=O)c2ccc(C)cc2)c(OC)c1,"inconclusive [cytotoxic, single point]",–
C/C=C/c1ccc(OCCN2CCc3ccccc3C2)c(OC)c1,"inconclusive [cytotoxic, single point]",–
COC(=O)c1c(NC(=O)CN2C(=O)NC3(CCCCC3C)C2=O)sc2c1CCC2 (stereo unspecified),"inconclusive [cytotoxic, single point]",–
CCOc1ccc(CCN2C(=O)C(=O)N([C@@H](CC(C)C)CN3CCC[C@H]3CN3C(=O)C(=O)NC[C@@H]3Cc3ccccc3)C[C@@H]2Cc2ccccc2)cc1,"inconclusive [cytotoxic, single point]",–
O=C(OC(C(=O)Nc1ccc(Cl)c(C(F)(F)F)c1)c1ccccc1)C1=COCCO1 (stereo unspecified),"inconclusive [cytotoxic, single point]",–
CCCCOCCCNC(=O)C[C@@H]1C[C@@]2(C(=O)OCC)CCCC=C2N(Cc2ccco2)C1=O,"inconclusive [cytotoxic, single point]",–
Cc1cc(N2CCOCC2)nc2ccc(NC(=S)N3CCCCC3C)cc12 (stereo unspecified),"inconclusive [cytotoxic, single point]",–
CCOC(=O)CN1C(=O)C(Sc2n[nH]c(-c3ccc(C)cc3)n2)CCc2ccccc21 (stereo unspecified),"inconclusive [cytotoxic, single point]",–
N#C/C(=C\c1ccc(N2CCOCC2)o1)c1ccccc1,active: 4.47 µM,–
COc1ccccc1N1CCN(CC(=O)Nc2c(C)n[nH]c2C)CC1,inactive,–
